Reference: patent US20200317802A1 (Merck KGaA, published 2020)

Legend:
[1] = target: T1, human ADAMTS1 (R&D Systems cat #2197-AD) (human, UniProt Q9UHI8 253-724, limits assumed); experiment: binding ELISA, hADAMTS-1 18.5nM coated, HRP conjugated anti-Nanobody tool
T1 sequence (looked up): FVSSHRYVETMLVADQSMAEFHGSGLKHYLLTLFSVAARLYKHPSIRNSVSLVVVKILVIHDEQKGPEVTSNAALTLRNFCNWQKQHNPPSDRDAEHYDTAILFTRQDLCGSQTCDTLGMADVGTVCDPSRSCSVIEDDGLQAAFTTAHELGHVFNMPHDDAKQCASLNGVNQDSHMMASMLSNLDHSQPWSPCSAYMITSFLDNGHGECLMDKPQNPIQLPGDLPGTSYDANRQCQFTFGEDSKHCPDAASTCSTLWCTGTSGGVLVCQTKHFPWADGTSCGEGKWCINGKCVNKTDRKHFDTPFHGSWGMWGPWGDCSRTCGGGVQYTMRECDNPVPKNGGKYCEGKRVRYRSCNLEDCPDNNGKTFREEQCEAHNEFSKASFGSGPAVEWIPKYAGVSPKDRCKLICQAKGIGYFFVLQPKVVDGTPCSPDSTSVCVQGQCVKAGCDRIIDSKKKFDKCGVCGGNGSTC
Procedure: (§1) Binding to human ADAMTS1 was tested in a binding ELISA (see Error! Reference source not found. A).

[2] = target: T2, recombinant human ADAMTS5 (R&D Systems cat #2198-AD) (human, UniProt Q9UNA0 262-622, limits assumed); experiment: cell-based or functional assay
T2 sequence: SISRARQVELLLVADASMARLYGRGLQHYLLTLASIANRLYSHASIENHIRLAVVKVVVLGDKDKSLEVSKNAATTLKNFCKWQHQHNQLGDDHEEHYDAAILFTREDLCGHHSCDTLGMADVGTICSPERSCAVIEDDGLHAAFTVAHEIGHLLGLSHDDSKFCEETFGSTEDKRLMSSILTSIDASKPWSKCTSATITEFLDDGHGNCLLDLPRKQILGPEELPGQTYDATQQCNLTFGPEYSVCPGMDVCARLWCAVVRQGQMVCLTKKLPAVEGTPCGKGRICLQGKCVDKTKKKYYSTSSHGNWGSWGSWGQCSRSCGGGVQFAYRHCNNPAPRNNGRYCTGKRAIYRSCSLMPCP

[3] = target: T2, recombinant human ADAMTS5 (R&D Systems …); experiment: KinExA, in solution, with HSA
Procedure: (§2) The affinity of the formatted Nanobody construct 069 (049-35GS-ALB11) and Nanobody construct 130 (049-35GS-093-ALB11)(see also Table 6.5) were determined in solution with a kinetic exclusion assay on a KinExA3000 instrument (Sapidyne, Boise, USA). To this end, human ADAMTS5 was coupled to PMMA beads according to the manufacturer's instructions, described in detail by Darling and Brault (2004 Assay Drug Dev Technol. 2:647-57). A fixed concentration of Nanobody construct (50 pM Nanobody construct 069 or 5 pM Nanobody construct 130) was added to a dilution series of human ADAMTS5 ranging from 2 nM-0.2 pM and incubated at room temperature for 16 hours till equilibrium was reached. Subsequently, mixtures were injected via KinExA's autosampler over a column packed with human ADAMTS5-conjugated PMMA beads to capture free Nanobody construct on the beads and detect with Alexa647-labeled HSA. Percent free Nanobody construct was plotted as a function of titrated human ADAMTS5 and fitted using the KinExA Pro Software v3.2.6.
(§3) Mixtures were incubated and allowed to reach equilibrium for 24 hours prior to injection via KinExA's autosampler over a column packed with human ADAMTS5-conjugated PMMA beads.

[4] = target: T2, recombinant human ADAMTS5 (R&D Systems …); experiment: binding ELISA, hADAMTS-5 18.5nM coated, HRP conjugated anti-Nanobody tool
Procedure: as §1

[5] = target: T2, recombinant human ADAMTS5 (R&D Systems …); experiment: KinExA, in solution, without HSA
Procedure: as §2, §3

[6] = target: T2, recombinant human ADAMTS5 (R&D Systems …); experiment: cell-based or functional assay; remark: listed apart in the source
[7] = target: T3, human ADAMTS4 (R&D Systems cat #4307-AD) (human, UniProt O75173 213-685, limits assumed); experiment: binding ELISA, human ADAMTS4 coated at 1 ug/mL, biotinylated anti-Nanobody tool and streptavidin-HRP [Human ADAMTS-4]
T3 sequence (looked up): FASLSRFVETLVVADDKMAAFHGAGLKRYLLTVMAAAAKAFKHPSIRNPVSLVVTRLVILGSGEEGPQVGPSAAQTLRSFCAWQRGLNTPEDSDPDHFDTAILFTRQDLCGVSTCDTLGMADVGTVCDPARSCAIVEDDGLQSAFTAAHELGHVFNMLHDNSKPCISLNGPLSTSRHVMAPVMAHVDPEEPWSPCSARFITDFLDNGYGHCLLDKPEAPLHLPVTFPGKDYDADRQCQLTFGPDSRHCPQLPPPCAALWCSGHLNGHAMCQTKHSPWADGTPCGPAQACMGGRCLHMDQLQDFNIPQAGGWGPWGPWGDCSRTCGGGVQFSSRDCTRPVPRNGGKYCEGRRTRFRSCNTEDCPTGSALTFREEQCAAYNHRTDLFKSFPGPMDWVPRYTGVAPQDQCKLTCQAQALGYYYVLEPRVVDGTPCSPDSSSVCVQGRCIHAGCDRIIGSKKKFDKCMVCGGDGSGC
Procedure: (§4) Binding to human ADAMTS4 and ADAMTS15 was tested in a binding ELISA (see FIG. 4B). In brief, 1 μg/mL of human ADAMTS4 (R&D Systems, Minneapolis, US; cat #4307-AD) or human ADAMTS15 (R&D Systems, Minneapolis, US; cat #5149-AD) was coated overnight at 1 μg/mL onto 96-well Maxisorp ELISA plates (Nunc, Wiesbaden, Germany). […] For both streptavidin-HRP was used as a secondary detection tool (Thermo Scientific Pierce; cat #21126). Plates were then visualized by adding sTMB) (SDT, Brussels, Belgium). All dilutions and detection tools were prepared in assay diluent (=PBS+10% Superblock+0.05% Tween20). The colouring reaction was stopped after 2.5 minutes by adding 1M HCl. Optical density was measured at 450 nm with 620 nm as reference wavelength.

rat recombinant ADAMTS5 = target: T4, rat recombinant ADAMTS5 (rat, UniProt Q9R001 262-618 (mouse entry)); experiment: KinExA, in solution; free 581 captured on human ADAMTS5 beads
T4 construct: in house, HEK293, His tag in the entry
T4 chain: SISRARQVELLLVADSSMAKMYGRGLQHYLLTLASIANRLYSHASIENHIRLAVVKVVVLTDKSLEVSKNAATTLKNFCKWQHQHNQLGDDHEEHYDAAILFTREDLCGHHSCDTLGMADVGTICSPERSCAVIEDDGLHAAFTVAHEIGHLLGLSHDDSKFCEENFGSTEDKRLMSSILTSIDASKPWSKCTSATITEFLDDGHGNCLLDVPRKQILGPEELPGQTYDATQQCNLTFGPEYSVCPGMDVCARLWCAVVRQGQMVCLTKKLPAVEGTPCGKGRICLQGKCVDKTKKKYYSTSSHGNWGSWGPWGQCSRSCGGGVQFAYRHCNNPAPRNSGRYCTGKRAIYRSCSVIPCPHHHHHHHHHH
Procedure: as §3

[8] = target: T5, cynomolgus monkey recombinant ADAMTS5 (cynomolgus monkey, UniProt Q9UNA0 262-622 (human entry), limits assumed); experiment: as above
T5 construct: in house, HEK293, His tag in the entry; also called cyno ADAMTS5
T5 chain: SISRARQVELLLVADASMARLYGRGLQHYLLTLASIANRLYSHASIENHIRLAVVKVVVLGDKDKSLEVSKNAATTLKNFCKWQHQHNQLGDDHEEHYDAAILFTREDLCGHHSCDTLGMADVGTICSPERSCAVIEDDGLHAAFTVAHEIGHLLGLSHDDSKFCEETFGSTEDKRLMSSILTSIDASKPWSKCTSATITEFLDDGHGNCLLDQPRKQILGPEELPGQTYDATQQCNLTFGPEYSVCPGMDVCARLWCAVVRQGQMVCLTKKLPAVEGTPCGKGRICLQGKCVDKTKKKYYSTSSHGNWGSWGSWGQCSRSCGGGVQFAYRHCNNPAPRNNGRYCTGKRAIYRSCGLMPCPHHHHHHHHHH
Procedure: as §3

[9] = target: T6, mouse recombinant ADAMTS5 (mouse, UniProt Q9R001 262-622, limits assumed); experiment: as above
T6 construct: in house, HEK293, His tag in the entry
T6 sequence: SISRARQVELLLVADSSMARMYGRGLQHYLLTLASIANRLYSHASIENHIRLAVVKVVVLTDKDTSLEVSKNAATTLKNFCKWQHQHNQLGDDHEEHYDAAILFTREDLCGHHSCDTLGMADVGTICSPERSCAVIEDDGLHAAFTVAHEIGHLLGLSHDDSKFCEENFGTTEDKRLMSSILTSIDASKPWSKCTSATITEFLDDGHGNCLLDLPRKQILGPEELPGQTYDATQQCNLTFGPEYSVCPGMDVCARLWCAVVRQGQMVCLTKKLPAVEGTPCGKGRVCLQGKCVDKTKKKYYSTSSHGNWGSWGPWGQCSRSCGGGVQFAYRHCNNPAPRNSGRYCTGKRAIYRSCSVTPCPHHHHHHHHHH
Procedure: as §3

rat serum albumin = target: T7, rat serum albumin (rat, UniProt P02770 25-608); experiment: SPR, serum albumin immobilised
T7 construct: also called rat SA

mouse serum albumin = target: T8, mouse serum albumin (mouse, UniProt P07724 25-608); experiment: SPR, serum albumin immobilised
T8 construct: also called mouse SA

[10] = target: T9, cynomolgus monkey serum albumin (cynomolgus monkey, UniProt A2V9Z4 25-608); experiment: SPR, serum albumin immobilised
T9 construct: also called cyno SA

human serum albumin = target: T10, human serum albumin (human, UniProt P02768); experiment: SPR, serum albumin immobilised
T10 construct: also called HSA; human SA

guinea pig serum albumin = target: T11, guinea pig serum albumin (guinea pig); experiment: SPR, serum albumin immobilised
T11 construct: also called guinea Pig SA

[11] = target: T12, human ADAMTS15 (R&D Systems cat #5149-AD) (human, UniProt Q8TE58 213-700, limits assumed); experiment: binding ELISA, human ADAMTS15 coated at 1 ug/mL, biotinylated anti-Nanobody tool and streptavidin-HRP [Human ADAMTS-15]
T12 sequence (looked up): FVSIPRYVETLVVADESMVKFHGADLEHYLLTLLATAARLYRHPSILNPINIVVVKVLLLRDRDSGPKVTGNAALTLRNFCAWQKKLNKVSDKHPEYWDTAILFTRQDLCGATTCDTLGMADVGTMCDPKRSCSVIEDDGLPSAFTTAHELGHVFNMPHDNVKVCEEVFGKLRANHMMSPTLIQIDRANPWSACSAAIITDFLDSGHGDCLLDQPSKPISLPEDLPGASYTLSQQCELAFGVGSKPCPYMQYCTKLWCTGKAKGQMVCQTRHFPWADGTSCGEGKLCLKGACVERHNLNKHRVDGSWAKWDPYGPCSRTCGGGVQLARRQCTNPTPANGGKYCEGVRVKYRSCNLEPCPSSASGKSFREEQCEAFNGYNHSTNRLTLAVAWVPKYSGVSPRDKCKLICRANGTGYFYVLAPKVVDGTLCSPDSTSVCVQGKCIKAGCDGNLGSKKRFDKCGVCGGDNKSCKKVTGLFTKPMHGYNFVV
Procedure: as §4

Chain of human serum albumin (P02768 25-609 limits assumed): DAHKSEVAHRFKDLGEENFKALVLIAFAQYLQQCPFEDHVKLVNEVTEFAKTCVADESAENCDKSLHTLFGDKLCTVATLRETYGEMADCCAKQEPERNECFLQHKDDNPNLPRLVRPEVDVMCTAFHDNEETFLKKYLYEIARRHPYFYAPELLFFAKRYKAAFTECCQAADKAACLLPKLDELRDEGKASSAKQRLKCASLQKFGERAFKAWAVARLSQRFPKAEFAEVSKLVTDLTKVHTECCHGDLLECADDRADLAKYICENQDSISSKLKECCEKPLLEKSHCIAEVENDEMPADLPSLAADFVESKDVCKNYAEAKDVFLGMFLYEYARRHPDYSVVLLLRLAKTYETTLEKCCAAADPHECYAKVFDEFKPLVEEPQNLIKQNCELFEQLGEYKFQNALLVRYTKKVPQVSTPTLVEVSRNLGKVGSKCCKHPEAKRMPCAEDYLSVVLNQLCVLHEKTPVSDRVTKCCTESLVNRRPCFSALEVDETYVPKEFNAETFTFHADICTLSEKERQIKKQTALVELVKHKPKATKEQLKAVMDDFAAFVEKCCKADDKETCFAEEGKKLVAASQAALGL
Chain of rat serum albumin (P02770 25-608 limits assumed): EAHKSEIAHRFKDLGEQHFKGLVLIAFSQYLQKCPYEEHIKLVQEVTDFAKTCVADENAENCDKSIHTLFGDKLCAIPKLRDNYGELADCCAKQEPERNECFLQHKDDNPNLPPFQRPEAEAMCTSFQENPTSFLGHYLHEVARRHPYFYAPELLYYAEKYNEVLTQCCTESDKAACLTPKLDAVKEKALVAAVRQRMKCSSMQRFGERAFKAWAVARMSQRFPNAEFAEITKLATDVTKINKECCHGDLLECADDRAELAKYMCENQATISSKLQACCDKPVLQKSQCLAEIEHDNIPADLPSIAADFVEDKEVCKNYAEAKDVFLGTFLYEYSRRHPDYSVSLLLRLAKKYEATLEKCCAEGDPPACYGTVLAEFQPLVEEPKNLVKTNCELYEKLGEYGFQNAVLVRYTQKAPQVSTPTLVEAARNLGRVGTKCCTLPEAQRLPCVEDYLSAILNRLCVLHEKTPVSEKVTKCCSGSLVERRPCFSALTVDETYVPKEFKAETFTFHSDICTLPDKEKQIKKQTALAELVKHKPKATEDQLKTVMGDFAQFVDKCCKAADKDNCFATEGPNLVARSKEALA
T9 sequence (A2V9Z4 25-608 limits assumed): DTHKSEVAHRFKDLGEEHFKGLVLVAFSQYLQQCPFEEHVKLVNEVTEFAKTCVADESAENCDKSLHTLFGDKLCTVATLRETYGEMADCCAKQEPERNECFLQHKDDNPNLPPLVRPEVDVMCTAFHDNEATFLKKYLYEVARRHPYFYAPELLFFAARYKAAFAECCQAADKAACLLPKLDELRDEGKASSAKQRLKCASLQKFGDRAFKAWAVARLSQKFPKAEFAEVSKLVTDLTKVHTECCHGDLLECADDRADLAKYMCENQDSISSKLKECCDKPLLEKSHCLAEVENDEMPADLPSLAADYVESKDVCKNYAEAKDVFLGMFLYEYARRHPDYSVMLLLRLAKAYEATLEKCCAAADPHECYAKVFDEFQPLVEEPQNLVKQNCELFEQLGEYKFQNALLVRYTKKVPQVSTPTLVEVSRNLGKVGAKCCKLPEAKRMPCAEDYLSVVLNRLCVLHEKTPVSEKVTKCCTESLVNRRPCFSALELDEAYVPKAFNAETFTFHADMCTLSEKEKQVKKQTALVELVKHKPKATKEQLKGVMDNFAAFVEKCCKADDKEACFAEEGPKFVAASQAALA

B1: Nanobody construct 581 (2F3^SO-35GS linker-Alb11) (bispecific antibody)
chain: DVQLVESGGGVVQPGGSLRLSCAASGRTVSSYAMGWFRQAPGKEREFVAGISRSAERTYYVDSLKGRFTISRDNSKNTVYLQMNSLRPEDTALYYCAADLDPNRIFSREEYAYWGQGTLVTVSSGGGGSGGGGSGGGGSGGGGSGGGGSGGGGSGGGGS[gap - about 120 residues]
notes: also called 577; C011400581
binding result [1]: no binding (tested: 10^-6 M)
AlphaLISA IC50, Exp 4 [2]: 350 pM
Kd [3]: 4.84 pM
EC50 (read off the curve) [4]: ~90 pM
Kd [5]: 3.65 pM
AlphaLISA IC50 [6]: 188 pM
binding result [7]: no binding (tested: 1000 nM)
Kd (rat recombinant ADAMTS5): 2.77 pM
Kd [8]: 2.22 pM
Kd [9]: 2.81 pM
koff (rat serum albumin): > 0.5 s⁻¹
Kd (mouse serum albumin): 790 nM
Kd [10]: 51 nM
Kd (human serum albumin): 48 nM
Kd (guinea pig serum albumin): 420 nM
binding result [11]: no binding (tested: 1000 nM)
